Data taken from the supplement of paper PMC3334620.
The full ranking holds about 33,000 sequences; the median of “E-score (-0.5 to 0.5)” is about -0.016, and the highest 2% start at about 0.31. The list shows a part of the results.

Biological target: Cst6 (UniProt P40535)
Experiment: PBM E-score (8-mer binding enrichment) (E-score (-0.5 to 0.5)); higher = stronger / more preferred TF binding; most listed sequences are background and not binding sites
Conditions: protein concentration: 200 nM; construct: GST-DNA-binding domain
Outline: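 For each ungapped eight-base word taken together with its reverse complement, the Universal PBM Analysis Suite assigned an E-score. Binding data came from GST-tagged yeast transcription factors, applied at about 100-200 nM, on universal all-10-mer Agilent arrays made double-stranded by primer extension. Fluorescent anti-GST marked bound protein, and scans were normalised with masliner.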

Sequence	PBM E-score
CTGGTATA	-0.221
TCCCGCCA	-0.313
GGCTTATA	0.0535
ACCGAGTA	-0.136
AAGCTACA	-0.0187
ATGCTTAA	0.0356
CATCACGC	0.207
AAGATTAA	0.177
GAAACCTA	-0.148
GACCCTTA	-0.1
CATTCCTC	-0.155
TCATGTAA	0.273
AGCGGCCC	-0.405
AAATGCGT	0.143
GAGTCTGA	-0.186
ATTTGTAC	0.151
CATAGACA	0.147
CAAGCCTG	-0.0975
ATGTTGCC	-0.0139
GCGTTCAC	-0.104
ACTACAGT	0.15
TGTTACAA	0.107
GTACTCGA	-0.111
GAGATCTA	-0.132
CATATGAA	0.165

Sequence	PBM E-score
AGCTAATC	0.201
TAGCCAGA	0.0135
GTCCACGA	-0.141
GGAGCTAC	-0.153
ACGCTCGC	-0.0376
AGAGTCTG	-0.36
AATTGTAA	0.0936
ACAGGGAA	-0.118
AGCCCAGC	-0.269
ACCATAAA	0.142
CCCAATAC	-0.0128
ATTTACCC	0.0182
GGAGTGTA	-0.197
GAGTGTCA	0.223
AGAGTGCA	-0.157
TAGACGAA	0.026
AAGAACCC	-0.0514
AGGAACGG	-0.0673
CTTAAAGA	-0.00756
CATAACAG	0.169
GCCCACCA	-0.262
CCCAAGCG	-0.308
AACTTGTA	0.174
ATTAACAC	0.26
CTTTGGTA	-0.148

Sequence	PBM E-score
GAATTTGA	0.0272
TAAGACTA	-0.0424
GAGAATCC	-0.127
CTTAATAC	0.117
ACCTCTCC	-0.198
AAAGATCG	0.0436
CGTCTCAG	-0.0355
GAAGGGAA	-0.123
AACTCGAG	-0.0652
CGAGCGTA	-0.0819
CATAGCTC	0.00697
ACAGTGGA	0.0174
CAGGGTCC	-0.322
CAGATTAC	0.145
ACGATGTA	0.104
CGATGATA	0.109
CTGTGTTC	-0.0438
AACGCATA	0.133
CAATACCC	-0.132
TCCGAAGA	-0.0693
CGATGGCA	-0.112
CGCAATAG	0.157
ACCGACGG	-0.0433
AACAGTGA	0.174
GTACAGTA	0.0186

Sequence	PBM E-score
AGTCACAG	-0.0682
CCCCCGCA	-0.311
CAGAAAGG	-0.0364
TTACGCAA	0.438
GCGTCCAA	-0.223
GTGATAAA	0.201
TGGCGAAA	-0.0838
TAGCACAA	-0.0337
CTTCAATA	0.16
CAGGGAAG	-0.244
CGGAGAAC	-0.231
TACGCTCA	0.183
AGCCAACC	-0.085
AAGACGAC	-3e-05
TGAGATCA	0.344
CTTCTTCC	-0.212
ACCGGGGA	-0.242
ACACTGCA	-0.154
ACGTTTGG	0.0774
AAGGCATC	0.00179
CTAAAGCA	-0.0723
ATGTATCG	0.16
ATCAGGTG	-0.0228
GTGTAAAC	0.0885
CTAGAGTC	-0.35

Sequence	PBM E-score
AGAGACTC	-0.149
CGAGTGCG	0.122
AGGCAGGC	-0.212
ATGGACAA	0.00817
AGGGTATG	0.0806
CCAATTCC	-0.0324
ATTATCGC	0.209
CGGAAAAA	0.13
AACTGTGG	-0.0509
CGCGTCAG	0.0126
GAGAGGAA	-0.172
ATACTCAT	0.0877
ACCAGAAC	-0.0452
AGAAAGGA	-0.0576
ATTTAACA	0.192
AATCAAAT	0.0206
GCACTCAA	-0.147
ACCCCGGA	-0.154
TGTACACA	0.133
ATTAAGAC	-0.0411
CCTGATTC	-0.163
ATATCACG	0.251
CGCATAAA	0.193
ACCTGGGC	-0.249
GGTTGAAC	-0.0634

Sequence	PBM E-score
CATTAACG	-0.0131
AAGAATCA	0.144
GCGTGTCC	-0.0468
ACACATGT	0.0996
CATTCAGA	0.134
ATCCGCTA	-0.0463
ACTACTTG	0.0469
ATTTCTAC	0.107
GCACGTGA	-0.00736
AACTTAAC	0.174
CAATCCCG	-0.026
GAAGCACA	-0.0852
ATACCGTG	0.0526
CCCCGGGG	-0.127
AACGTACT	0.0968
TCCAATAA	0.164
AAGGCAAT	0.183
ATAGCCTG	-0.229
AAGCCCAG	-0.233
GGTGTTGA	-0.0229
CGCCCCGC	-0.0223
ACATAGAC	0.076
GACTGCAA	-0.135
ACACATCC	-0.196
AAAGGATT	0.0172

Sequence	PBM E-score
CAACCACA	0.0622
CTGACAAA	0.136
AAAAGGCA	0.148
AAAGTGCT	-0.0406
AGCACCGA	0.0242
ATACTGGA	0.113
AAGATAGC	-0.0979
AAGCTTTG	-0.087
ATGTGAGC	-0.121
TCAGGTCA	0.0955
ACTCGTGA	0.0735
CGTCCCGC	-0.166
AACGTTCG	-0.18
CACCTGCG	-0.0641
ATATTGGC	0.0965
CCGGGTGA	-0.154
CTCGGCAG	-0.163
AAGTGCGT	0.0635
AAGCACCT	-0.123
GCATAAAA	0.215
GTATTCAA	0.138
ACGGAGCG	0.126
AACAGAAT	0.0264
ACTTTAAT	0.107
ATGCAGTA	0.122

Sequence	PBM E-score
GAAAGAGA	0.0803
ACCGTCCC	-0.173
CTTCTAGA	-0.0315
ATCCGCTG	-0.175
AACTTCCG	-0.133
ACTTCTAA	-0.0568
GCCCGTCC	-0.319
TACTTGCA	0.0481
ACGGTACG	0.0425
CCTACATA	-0.19
GGGTCTGA	-0.149
AGTCGAAA	0.0306
AGGTTCTG	-0.0864
GTGGCATA	-0.0571
TGCCAGAA	-0.153
GAGAAGAA	-0.0406
ACTGAGAG	-0.0714
AGCGATTG	-0.196
GTACCCGA	-0.287
ACACTGCT	-0.05
CTCTCCGA	-0.206
GATACACA	0.0163
CATTTTGG	0.0969
CTAAATCA	0.0639
AGAAATAG	0.102

Sequence	PBM E-score
AGGACATA	-0.0464
GACATAAA	0.276
GTCCTGTA	-0.106
GTATCCTA	-0.109
CACAGACG	-0.0598
TACATGAA	0.0609
CACCTCGG	0.02
ACTGGACT	-0.135
GGAACTCC	-0.141
AGTAGCTC	-0.186
ATATGCCG	0.221
TAGTTTCA	0.175
GTAAATAA	0.176
GACAGTCA	-0.0779
CCCAGACG	-0.271
ACTCTGAG	-0.194
CGGTCGTC	-0.203
ACCATGGT	-0.351
CCCCTTTA	-0.159
CCCCCACC	-0.435
ATACTCTC	-0.0323
CACGGGAA	-0.185
GAGAACCA	0.0429
ATACCCCC	-0.345
CGGGAAAC	-0.0865

Sequence	PBM E-score
AGGCTCAG	-0.115
CCTAGGTA	-0.191
GGCGGAAA	-0.0125
AGAGGAGC	-0.205
CCGCGAAC	-0.188
AACAGTTA	0.0317
ACGCGCCG	0.182
AATCCATG	0.0306
AAATTCAT	0.228
ATCGTCCG	0.133
ACTTCATG	0.0085
CACCCGTA	-0.0938
ACAGCCAC	0.034
CACCCTGG	-0.236
CCTCATGC	-0.15
AGGGCACT	-0.0161
ATCTCTTG	-0.135
CTCCCATA	-0.29
GCTACGCC	-0.193
GAGGGAAA	-0.0916
ATTGCAGA	0.146
CCGTAACC	-0.0836
CCTGAGGA	-0.157
CAAGTGGA	-0.172
AAACTTTA	0.151

Sequence	PBM E-score
AGCCGGAT	-0.191
AATCTGGT	-0.084
CACAACAA	0.134
CGTACTAC	0.0114
GAAACTTA	0.19
CGTAGAAA	0.0476
AGTTTTTA	0.257
AGGAAGCA	-0.216
AGATTCAT	-0.0798
CAGTCGCC	-0.122
TGAACCCA	-0.0205
ACCCCTAC	-0.213
AATAGGTG	-0.0703
CTTGGACA	-0.109
AGCCCTAT	-0.175
CTTACACC	-0.0382
AAAAACAT	0.183
GACCAAAC	0.0333
TAGTCCGA	-0.175
GCTCAGCA	0.0438
AAGTATTA	-0.00257
ACACCCGC	0.0688
CCAAATGG	-0.0413
AAGGCGTA	0.0577
CGGTTCGC	-0.0841

Sequence	PBM E-score
CGAGCAGC	-0.0327
GAGGATCA	-0.069
GTGGTTGA	-0.0661
AGATGGAA	-0.0939
AATTTAGT	0.235
TGCGGCCA	-0.00532
GCTTCGAC	-0.171
ACGTAGGG	-0.0499
ATAGGCTG	-0.0693
AGTCAGGG	-0.293
AGCCTTGC	-0.0321
ACTATGTC	0.0789
AGCCTACG	0.07
CATTGGAC	-0.0317
CGTAAATC	0.149
CGAGGTTA	-0.0824
CCTTTTTA	0.122
TGAGGCCA	0.0335
ACTGTGCA	-0.112
AAAACCTC	0.103
CGCCCTGC	-0.0262
GAGGGAGA	-0.319
ATTAAGCA	0.0979
CAGTGCTC	-0.139
TCGGTGAA	-0.139

Sequence	PBM E-score
AAGCTTAC	0.00659
TAACATGA	0.155
GCGAGTTA	0.1
CAGCTTCG	-0.0525
GACTTCGA	-0.00203
CGCAACCG	-0.131
GATTTAGA	-0.0338
CACGTACA	-0.0529
AGTCCGCC	-0.252
ATAGTAAG	0.167
CGGGGTGA	0.124
AGCGAGGC	-0.0448
AAGCGTAC	-0.13
ATAGGATG	0.0591
AATCTATA	0.272
AGGTTCCA	-0.124
AATGCGGT	-0.0337
CCTCCAGA	-0.111
AGGCAGAT	-0.0309
ACTCGGGG	-0.151
GGACTGTA	-0.0875
CGGCAAAC	0.0595
ACATCGCT	-0.0354
GCTCAGGA	-0.112
AAAGTGTT	0.0406

Sequence	PBM E-score
ACGAAGTA	-0.182
CGTTTTAG	-0.0359
GGACCACA	-0.223
TGAACGAA	0.0906
CAAGTGAA	0.0625
ATACACCC	-0.0469
ACTCCGCC	-0.282
ACTCACCC	-0.0424
TAGAACGA	0.134
AATATGTA	0.211
AGGTTCGC	-0.315
ACGACAGG	-0.00513
AAGAGAAG	0.026
AGCGTTGC	0.13
TAATCGCA	0.24
AGTCAGAG	-0.0315
CAACGGCG	0.132
AGTGTTGC	0.166
GGAGTCCA	-0.161
